Data as given in PMC4336329 (PLoS ONE, 2015).
In all, about 310,000 compounds went through this assay and about 2,200 (0.71%) showed an effect of 50% or more. The effect is printed as a negative number. The list shows a part of the results.

target: human ether-à-go-go-related gene (hERG) potassium channel (human, UniProt Q12809); experiment: primary screen, population patch clamp on CHO cells stably expressing hERG
Sequence (Q12809 whole entry, looked up): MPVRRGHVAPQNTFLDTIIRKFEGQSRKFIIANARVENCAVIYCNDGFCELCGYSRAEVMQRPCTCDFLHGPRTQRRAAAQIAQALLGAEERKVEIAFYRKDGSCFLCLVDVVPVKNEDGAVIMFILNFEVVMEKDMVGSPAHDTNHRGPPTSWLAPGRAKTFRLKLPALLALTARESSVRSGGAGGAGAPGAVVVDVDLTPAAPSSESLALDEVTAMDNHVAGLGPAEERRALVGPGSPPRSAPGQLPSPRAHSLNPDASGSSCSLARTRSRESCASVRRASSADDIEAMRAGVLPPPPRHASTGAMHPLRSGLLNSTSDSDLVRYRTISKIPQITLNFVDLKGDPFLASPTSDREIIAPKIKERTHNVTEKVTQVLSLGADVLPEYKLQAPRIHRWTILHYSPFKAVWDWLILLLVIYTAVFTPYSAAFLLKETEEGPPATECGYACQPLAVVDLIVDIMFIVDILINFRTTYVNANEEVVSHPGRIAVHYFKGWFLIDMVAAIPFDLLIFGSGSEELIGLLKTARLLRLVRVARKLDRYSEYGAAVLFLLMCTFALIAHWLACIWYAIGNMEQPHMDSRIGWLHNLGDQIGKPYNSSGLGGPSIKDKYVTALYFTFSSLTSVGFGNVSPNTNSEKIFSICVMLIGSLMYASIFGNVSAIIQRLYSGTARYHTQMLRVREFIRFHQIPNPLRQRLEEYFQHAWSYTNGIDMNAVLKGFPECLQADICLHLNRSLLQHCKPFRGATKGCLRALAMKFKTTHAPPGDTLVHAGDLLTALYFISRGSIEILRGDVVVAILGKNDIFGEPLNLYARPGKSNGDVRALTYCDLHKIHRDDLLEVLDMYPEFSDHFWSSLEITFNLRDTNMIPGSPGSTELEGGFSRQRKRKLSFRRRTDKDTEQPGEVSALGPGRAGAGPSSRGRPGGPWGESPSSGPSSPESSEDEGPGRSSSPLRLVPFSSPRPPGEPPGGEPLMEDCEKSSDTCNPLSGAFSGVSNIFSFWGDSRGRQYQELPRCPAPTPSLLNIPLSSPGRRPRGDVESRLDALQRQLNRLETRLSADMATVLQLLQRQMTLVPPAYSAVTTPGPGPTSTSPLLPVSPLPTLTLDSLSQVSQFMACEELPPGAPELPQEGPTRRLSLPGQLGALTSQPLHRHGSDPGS

| Compound | hERG current change (%, negative = inhibition) at 1uM [%] |
| --- | --- |
| CCN(C(=O)Cc1cccs1)c1nnc(-c2cccnc2)s1 | 3.69 |
| CC(OC(=O)COc1ccc(Nc2ccccc2)cc1)C(=O)N(C)c1ccccc1 (centres unmarked) | 15.1 |
| COc1cccc(NC(=O)CN(C)C(=O)CCc2nc3sc4c(c3c(=O)[nH]2)CCCC4)c1 | 6.77 |
| CCOc1ccc(CN(C)C(=O)c2ccc(=O)[nH]c2)cc1 | 12.9 |
| Cc1ccc(NC(=O)c2cc3c(s2)CCCC3)cc1S(=O)(=O)Nc1ccccc1Cl | 7.04 |
| CCOC(=O)CCNC(=O)N1CCCC(N2CCN(c3ccc(OC)cc3)CC2)C1 (centres unmarked) | 16.4 |
| Cn1cc(/C=C(\NC(=O)c2ccccc2Cl)C(=O)NCCCN2CCOCC2)c2ccccc21 | 17.5 |
| CNc1c(N=Cc2cccnc2)c(=O)n(C)c(=O)n1C | 11.9 |
| CCCC(=O)NCCc1nc2ccccc2n1C | 17.6 |
| CC(C)n1ncc2c(C(=O)N3CCN(c4ccccc4)CC3)cc(-c3ccccc3)nc21 | 19.3 |
| CCCOc1ccc(C2c3c(oc4cc(C)c(C)cc4c3=O)C(=O)N2CCCN(C)C)cc1 (centres unmarked) | -8.32 |
| CCn1c(=O)cc(OCC(=O)NCc2cccs2)c2ccccc21 | 6.29 |
| COc1ccc(NS(=O)(=O)c2cccc(C(=O)NCC3(N4CCCCC4)CCCCC3)c2)cc1 | -4.37 |
| CCN(CCO)C(=S)Nc1cc(C(=O)OC)ccc1C(=O)OC | -12.8 |
| CCOc1ccc2nc(N3CCCC(C(=O)NCCCN4CCOCC4)C3)sc2c1 (centres unmarked) | -1.79 |
| Cc1ccc(NC(=O)CSc2nc3ccccc3c3nc(CCc4c(C)n[nH]c4C)nn23)cc1F | 3.64 |
| O=C1CN(c2ccccc2)C(=S)N1C(=O)c1ccccc1 | 13.5 |
| CCCN(C(=O)CSc1nnc(-c2ccoc2C)n1N)C1CCS(=O)(=O)C1 (centres unmarked) | 6.45 |
| CC(C)CNC(=O)c1c(N)n(/N=C/c2ccccn2)c2nc3ccccc3nc12 | 16.6 |
| CS(=O)(=O)N1CCC(C(=O)NCCC2=CCCCC2)CC1 | 8.6 |
| Cc1[nH]c2ccccc2c1C(=O)C(C)OC(=O)c1ccc(NC(=O)CC#N)cc1 (centres unmarked) | -5.19 |
| O=C(CN1C(=O)S/C(=C\c2ccccc2F)C1=O)NCCCn1ccnc1 | 6.82 |

| Compound | hERG current change (%, negative = inhibition) at 1uM [%] |
| --- | --- |
| Cc1ccc(N2C(=O)c3cccc([N+](=O)[O-])c3C2=O)cc1C | 9.91 |
| CCOCCCNC(=O)/C(C#N)=C/c1cc(OC)c(O)c([N+](=O)[O-])c1 | 9.2 |
| CCCC1C(=O)N(c2ccccc2)C1c1ccccc1 (centres unmarked) | 5.89 |
| O=C(CSc1nnnn1-c1cccc2c1CCCC2)N1CCCC1 | -5.05 |
| Oc1c(C(c2ccc(F)cc2)N2CCc3ccccc3C2)sc2ncnn12 (centres unmarked) | 13.5 |
| O=C(COC(=O)c1ccccc1NC(=O)c1ccccc1)c1ccc([N+](=O)[O-])cc1 | 3.47 |
| COc1ccc(NC(=S)N2CCN(S(C)(=O)=O)CC2)cc1 | 12.2 |
| CCn1cc(C2CC(=O)NC2=O)c2ccccc21 (centres unmarked) | 9.56 |
| COC(=O)c1ccc(NC(=O)Nc2ccc(F)cc2)cc1 | 1.81 |
| CS(=O)(=O)c1ccc(C(=O)OCC(=O)Nc2cccc(S(=O)(=O)N3CCCC3)c2)cc1 | 2.79 |
| Cc1cc(/C=C2/SC(=S)N(c3cccc(C(F)(F)F)c3)C2=O)c(C)n1-c1cccnc1 | 7.53 |
| CCCCCCCNC(=O)C1CC(=O)N(C)C(=Nc2ccc(OC)cc2)S1 (centres unmarked) | 16.1 |
| O=C(CSc1nc2ccc(NC(=O)c3ccccc3C(=O)O)cc2s1)Nc1c(Cl)cccc1Cl | 17 |
| COc1ccc(-c2cc(C(F)F)n3ncc(C(=O)N4CCCCC4)c3n2)cc1 | 7.09 |
| Cc1nc(N2CCN(S(=O)(=O)c3ccccc3C#N)CC2)c2c(-c3cccs3)csc2n1 | -4.31 |
| CCOC(=O)c1ncn2c1[C@@H]1CCNC1C(=O)c1cc(OC)ccc1-2 (some centres unmarked) | -27.7 |
| Cc1nc2ncnn2c(C)c1C/C=C/c1ccccc1 | 5.44 |
| Cc1ccc(CN2CCN(C(=O)c3cccc4ccccc34)CC2)cc1.O=C(O)C(=O)O | 12.5 |
| CCOc1cc(/C=N/NC(=O)c2ccc(CN3CCOCC3)cc2)ccc1OC | 1.6 |
| COc1cccc(NC(=O)c2ccccc2NS(C)(=O)=O)c1 | -5.46 |
| O=C(Cn1nc(-c2ccccc2)c2ccccc2c1=O)Nc1cccc(O)c1 | 13.7 |
| Cc1ccc(C(=O)NCN2CCN(c3ccc(F)cc3)CC2)cc1 | 6 |

| Compound | hERG current change (%, negative = inhibition) at 1uM [%] |
| --- | --- |
| N=c1c(C(=O)NC2CCCCC2)cc2c(=O)n3ccccc3nc2n1Cc1ccc(F)cc1 | -29.5 |
| CCN(CC)S(=O)(=O)c1cccc(N=Nc2c(O)c3ccccc3oc2=O)c1 | 6.47 |
| COc1ccc(Cl)cc1NC(=O)CN(C)C(=O)CNC(=O)C12CC3CC(CC(C3)C1)C2 | 9.5 |
| Cn1c(-c2sccc2OCc2ccc(Cl)cc2Cl)n[nH]c1=S | 12.4 |
| O=C(CN1C(=O)NC2(CCCCC2)C1=O)Nc1nc2c(F)cc(F)cc2s1 | 17.1 |
| COc1ccc(C(=O)NC(=S)Nc2cc3oc4ccccc4c3cc2OC)cc1 | 2.97 |
| CN(C)C(=O)Oc1cc(OC(=O)N(C)C)cc(C(O)CNC(C)(C)C)c1 (centres unmarked) | 11.7 |
| O=C(c1cccc(-n2cnnn2)c1)N1CC=C(c2ccccc2)CC1 | -3.52 |
| O=S(=O)(c1ccc(F)cc1)N1CCCc2ccccc21 | 9 |
| OCC1(Cc2ccc(Cl)cc2)CCN(CCCc2ccccc2)CC1 | -83.6 |
| CC(C)(C)NC(=O)C(=O)NNC(=O)c1cccc(Br)c1 | 1.02 |
| Clc1ccc2nc(CSc3nnc4ccccn34)cn2c1 | 3.94 |
| Cc1nnc(N/N=C/C(C)c2ccccc2)[nH]c1=O (centres unmarked) | 8.55 |
| CCn1c(COc2ccc3c(c2)CCCC3)nnc1SCC(=O)Nc1nccs1 | 0.166 |
| CCOC(=O)C1(C)Oc2ccc(S(=O)(=O)CC)cc2NC1=O (centres unmarked) | 16.3 |
| O=C(NCc1cccc(Cl)c1)C1CCCN(c2ncnc3c2nc2n3CCCCC2)C1 (centres unmarked) | -25.2 |
| CCCCOc1ccc(Cl)cc1CSc1nnc(CC)n1N | 7.59 |
| Cc1cc(=O)oc(C)c1C(=O)NC12CC3CC(CC(C3)C1)C2 | 3.12 |
| O=S(=O)(c1cccs1)N1CN(Cc2cccs2)c2nc3ccccc3nc21 | 4.53 |
| CC(=O)Nc1ccc(C(O)(C(F)(F)F)C(F)(F)F)cc1 | 8.79 |
| O=c1c2ccccc2c(C=NC2CCN(Cc3ccccc3)CC2)c(O)n1Cc1ccc2c(c1)OCO2 | 12.5 |
| COc1ccc(C(=O)N2CCN(C(=O)c3ccco3)CC2)cc1OC | 1.92 |

| Compound | hERG current change (%, negative = inhibition) at 1uM [%] |
| --- | --- |
| CC(NC(=O)CSc1ncccn1)c1ccc(Cl)cc1Cl (centres unmarked) | 30 |
| COc1ccc(NC(=O)CN(C)Cc2c(F)cccc2Cl)cc1S(=O)(=O)N1CCCCC1 | 14.1 |
| CCOC(=O)c1cnc2c(F)ccc(F)c2c1Sc1ccccc1 | 5.26 |
| COc1cccc(NC(=O)CN2CCC(C)CC2)c1 | 4.13 |
| O=[N+]([O-])c1cc(-c2csc(NC(CO)c3nc4ccccc4n3CCOCCO)n2)ccc1Cl (centres unmarked) | 7.42 |
| CCCC[C@H]1COCCS(=O)(=O)N1Cc1ccc(C)cc1 | 8.5 |
| COc1ccccc1C(=O)Nc1ccnn1C1CCN(C2CCSCC2)CC1 | -44.5 |
| O=S(=O)(c1cccc(COc2c(Cl)cccc2Cl)c1)N1CCOCC1 | 2.7 |
| CSCCC(NC(=O)c1cc(C(C)(C)C)oc1C)C(=O)O (centres unmarked) | 15.6 |
| CC1CC(C)CN(S(=O)(=O)c2ccc(C(=O)NCc3ccco3)cc2)C1 (centres unmarked) | 0.824 |
| COc1ccccc1OP(=O)(Nc1ccc(Br)cc1)Oc1ccccc1OC | 13.9 |
| CCCOC(=O)CSC1=C(C#N)C(c2ccc3c(c2)OCO3)CC(=O)N1 (centres unmarked) | 7.14 |
| COc1cc(/C=N/N2CCN(c3ccc(Cl)cc3)CC2)cc(OC)c1OC(C)=O | 9.11 |
| COc1ccc(CNC(=O)C2=CC(c3ccc(C)cc3)=NS(=O)(=O)N2C)cc1 | 5.85 |
| Cc1cc(C)cc(NC(=O)C2CCC(CNC(=O)[C@@H]3Cc4ccccc4CN3)CC2)c1 (some centres unmarked) | 6.54 |
| O=C(Cc1ccccc1)Nc1ccc(F)cc1 | 12.8 |
| O=C(NCc1ccccn1)C1CCCN(S(=O)(=O)c2ccc(Br)cc2)C1 (centres unmarked) | -1.52 |
| C/C(CC(C)(C)C1CCCCC1)=N\NC(N)=S | 11.9 |
| C=C[C@@H]1c2c(F)cccc2N(S(=O)(=O)c2ccc(C)cc2)[C@H](c2ccc(C(=O)OC)cc2)C1(C#N)C#N | 14.3 |
| COc1cc(CN(C2CCCCC2)S(=O)(=O)c2ccc(S(=O)(=O)N(C)C3CCCCC3)cc2)cc(OC)c1OC | 4.74 |
